# Results reported in the supplement of paper PMC5895741.
# B1: MS2 coat protein; the commonest letter at each place (parent)
# chain: MASNFTQFVLVDNGGTGDVTVAPSNFANGVAEWISSNSRSQAYKVTCSVRQSSAQNRKYTIKVEVPKVATQTVGGVELPVAAWRSYLNMELTIPIFATNSDCELIVKAMQGLLKDGNPIPSAIAANSGIY
# Variants of: B1
# Test: apparent fitness score (VLP assembly selection enrichment vs plasmid library) (log10 ratio); higher = better expression / assembly into well-formed VLPs
# 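Also: counts from Illumina MiSeq reads, cDNA of packaged RNA versus plasmid DNA taken before selection, each replicate independent from library construction onward, expression induced with 0.1% arabinose.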
row,Variant,apparent fitness score (log10)
1,MASNFTQFVLVDNGGTGDVTVAPSNFANGVAEWISSNSRSQAYKVTCSVRQSSAQNRKYTIKVEVPKVATQTVGGVELPVAAWRSYANMELTIPIFATNSDCELIVKAMQGLLKDGNPIPSAIAANSGIY [L87A],-0.907
2,MASNFTQFVLVDNGGTGDVTVAPSNFANGVAEWISSNSRSQAYKVTCSVRQSSAQNRKYTIKVEVPKVATQTVGGVELPVAAWRSYCNMELTIPIFATNSDCELIVKAMQGLLKDGNPIPSAIAANSGIY [L87C],0.422
3,MASNFTQFVLVDNGGTGDVTVAPSNFANGVAEWISSNSRSQAYKVTCSVRQSSAQNRKYTIKVEVPKVATQTVGGVELPVAAWRSYDNMELTIPIFATNSDCELIVKAMQGLLKDGNPIPSAIAANSGIY [L87D],-0.597
4,MASNFTQFVLVDNGGTGDVTVAPSNFANGVAEWISSNSRSQAYKVTCSVRQSSAQNRKYTIKVEVPKVATQTVGGVELPVAAWRSELNMELTIPIFATNSDCELIVKAMQGLLKDGNPIPSAIAANSGIY [Y86E],-1.47
5,MASNFTQFVLVDNGGTGDVTVAPSNFANGVAEWISSNSRSQAYKVTCSVRQSSAQNRKYTIKVEVPKVATQTVGGVELPVAAWRSDLNMELTIPIFATNSDCELIVKAMQGLLKDGNPIPSAIAANSGIY [Y86D],< -4
6,MASNFTQFVLVDNGGTGDVTVAPSNFANGVAEWISSNSRSQAYKVTCSVRQSSAQNRKYTIKVEVPKVATQTVGGVELPVAAWRSHLNMELTIPIFATNSDCELIVKAMQGLLKDGNPIPSAIAANSGIY [Y86H],1.06
7,MASNFTQFVLVDNGGTGDVTVAPSNFANGVAEWISSNSRSQAYKVTCSVRQSSAQNRKYTIKVEVPKVATQTVGGVELPVAAWRSALNMELTIPIFATNSDCELIVKAMQGLLKDGNPIPSAIAANSGIY [Y86A],-1.26
8,MASNFTQFVLVDNGGTGDVTVAPSNFANGVAEWISSNSRSQAYKVTCSVRQSSAQNRKYTIKVEVPKVATQTVGGVELPVAAWRSCLNMELTIPIFATNSDCELIVKAMQGLLKDGNPIPSAIAANSGIY [Y86C],-0.812
9,MASNFTQFVLVDNGGTGDVTVAPSNFANGVAEWISSNSRSQAYKVTCSVRQSSAQNRKYTIKVEVPKVATQTVGGVELPVAAWRSTLNMELTIPIFATNSDCELIVKAMQGLLKDGNPIPSAIAANSGIY [Y86T],-1.07
10,MASNFTQFVLVDNGGTGDVTVAPSNFANGVAEWISSNSRSQAYKVTCSVRQSSAQNRKYTIKVEVPKVATQTVGGVELPVAAWRSQLNMELTIPIFATNSDCELIVKAMQGLLKDGNPIPSAIAANSGIY [Y86Q],< -4
11,MASNFTQFVLVDNGGTGDVTVAPSNFANGVAEWISSNSRSQAYKVTCSVRQSSAQNRKYTIKVEVPKVATQTVGGVELPVAAWRSNLNMELTIPIFATNSDCELIVKAMQGLLKDGNPIPSAIAANSGIY [Y86N],-0.798
12,MASNFTQFVLVDNGGTGDVTVAPSNFANGVAEWISSNSRSQAYKVTCSVRQSSAQNRKYTIKVEVPKVATQTVGGVELPVAAWRSKLNMELTIPIFATNSDCELIVKAMQGLLKDGNPIPSAIAANSGIY [Y86K],-0.215
13,MASNFTQFVLVDNGGTGDVTVAPSNFANGVAEWISSNSRSQAYKVTCSVRQSSAQNRKYTIKVEVPKVATQTVGGVELPVAAWRSILNMELTIPIFATNSDCELIVKAMQGLLKDGNPIPSAIAANSGIY [Y86I],-1.03
14,MASNFTQFVLVDNGGTGDVTVAPSNFANGVAEWISSNSRSQAYKVTCSVRQSSAQNRKYTIKVEVPKVATQTVGGVELPVAAWRSRLNMELTIPIFATNSDCELIVKAMQGLLKDGNPIPSAIAANSGIY [Y86R],0.469
15,MASNFTQFVLVDNGGTGDVTVAPSNFANGVAEWISSNSRSQAYKVTCSVRQSSAQNRKYTIKVEVPKVATQTVGGVELPVAAWRSSLNMELTIPIFATNSDCELIVKAMQGLLKDGNPIPSAIAANSGIY [Y86S],-1.13
16,MASNFTQFVLVDNGGTGDVTVAPSNFANGVAEWISSNSRSQAYKVTCSVRQSSAQNRKYTIKVEVPKVATQTVGGVELPVAAWRSMLNMELTIPIFATNSDCELIVKAMQGLLKDGNPIPSAIAANSGIY [Y86M],-0.34
17,MASNFTQFVLVDNGGTGDVTVAPSNFANGVAEWISSNSRSQAYKVTCSVRQSSAQNRKYTIKVEVPKVATQTVGGVELPVAAWRSGLNMELTIPIFATNSDCELIVKAMQGLLKDGNPIPSAIAANSGIY [Y86G],-1.19
18,MASNFTQFVLVDNGGTGDVTVAPSNFANGVAEWISSNSRSQAYKVTCSVRQSSAQNRKYTIKVEVPKVATQTVGGVELPVAAWRSPLNMELTIPIFATNSDCELIVKAMQGLLKDGNPIPSAIAANSGIY [Y86P],-1.09
19,MASNFTQFVLVDNGGTGDVTVAPSNFANGVAEWISSNSRSQAYKVTCSVRQSSAQNRKYTIKVEVPKVATQTVGGVELPVAAWRSFLNMELTIPIFATNSDCELIVKAMQGLLKDGNPIPSAIAANSGIY [Y86F],0.59
20,MASNFTQFVLVDNGGTGDVTVAPSNFANGVAEWISSNSRSQAYKVTCSVRQSSAQNRKYTIKVEVPKVATQTVGGVELPVAAWRSVLNMELTIPIFATNSDCELIVKAMQGLLKDGNPIPSAIAANSGIY [Y86V],-0.502
21,MASNFTQFVLVDNGGTGDVTVAPSNFANGVAEWISSNSRSQAYKVTCSVRQSSAQNRKYTIKVEVPKVATQTVGGVELPVAAWRSLLNMELTIPIFATNSDCELIVKAMQGLLKDGNPIPSAIAANSGIY [Y86L],-0.769
22,MASNFTQFVLVDNGGTGDVTVAPSNFANGVAEWISSNSRSQAYKVTCSVRQSSAQNRKYTIKVEVPKVATQTVGGVELPVAAWRSWLNMELTIPIFATNSDCELIVKAMQGLLKDGNPIPSAIAANSGIY [Y86W],-0.722
